Results are given in words; binding and its absence hold for the method and conditions named. For some of these results: Binding seen in cells or lysates may run through a third protein. Some binding calls cover weakened binding; strength is not graded here. For some of these results: Tags and fused reporters may be left off the sequences shown.
T1: Rbm24b two-hybrid clone, residues 93-219 (Xenopus laevis) (UniProt Q9I8B3)
T1 sequence: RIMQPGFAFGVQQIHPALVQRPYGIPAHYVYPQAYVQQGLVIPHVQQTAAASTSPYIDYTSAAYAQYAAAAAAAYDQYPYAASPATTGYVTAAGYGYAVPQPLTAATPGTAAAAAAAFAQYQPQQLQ

The chains behind the UniProt entries cited, without tags or fusion partners. Where a name states a change or a piece, a line headed by the entry shows the natural chain unless it says otherwise.
UniProt Q9YGP5: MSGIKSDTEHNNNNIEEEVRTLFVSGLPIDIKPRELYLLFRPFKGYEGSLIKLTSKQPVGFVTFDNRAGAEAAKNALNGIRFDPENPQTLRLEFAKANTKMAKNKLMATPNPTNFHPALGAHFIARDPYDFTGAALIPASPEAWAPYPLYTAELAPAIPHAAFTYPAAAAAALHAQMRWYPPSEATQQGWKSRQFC


Key:
[1] = target: T1, Rbm24b two-hybrid clone, residues 93-219 (Xenopus laevis); assay: two-hybrid; reverse test: selected inserts in the LexA bait plasmid pBTM116 against the Hermes ORF in the pVP16 prey vector, yeast strain L40; selective media and beta-galactosidase reporter assays
[2] = target: Hermes b (Hermes ORF, two-hybrid fusion) (Xenopus laevis) (UniProt Q9YGP5); assay: two-hybrid; screen of a randomly primed X. laevis oocyte cDNA library in pVP16 (prey) with LexA-Hermes b (pBTM116) as bait, yeast strain L40; selection on medium lacking Leu, Trp, His with 15 mM 3-aminotriazole, beta-galactosidase filter assay
[3] = target: VN-POC1B / VC-POC1B (BiFC fusion of Xenopus Poc1B) (Xenopus) (UniProt Q4V7Z1); assay: split reporter; BiFC with Venus fragments VN and VC fused to the N-terminus of the ORFs; mRNAs injected into stage VI Xenopus oocytes, 48 h in OCM; confocal microscopy of the vegetal cortex at constant gain, and of hand-sectioned fixed oocytes
[4] = target: VN-Rbm24b / VC-Rbm24b (BiFC fusion of Rbm24b) (Xenopus laevis) (UniProt Q9I8B3); assay: as above

Row | binding [2] | Molecule | also measured
1 | binds | Hermes b, two-hybrid clone (residues 7-115) (from UniProt Q9YGP5 7-115) (domain or fragment) | –
2 | binds | Rbm24b two-hybrid clone, residues 93-219 (domain or fragment, UniProt Q9I8B3 93-219) RIMQPGFAFGVQQIHPALVQRPYGIPAHYVYPQAYVQQGLVIPHVQQTAAASTSPYIDYTSAAYAQYAAAAAAAYDQYPYAASPATTGYVTAAGYGYAVPQPLTAATPGTAAAAAAAFAQYQPQQLQ | –

The remaining lines, values behind:

Row | Molecule | binding [2] | also measured
3 | Hermes b (Hermes ORF, two-hybrid fusion) (from UniProt Q9YGP5 1-196) | – | binding [1]: binds
4 | Hermes b, two-hybrid clone (residues 1-111) (from UniProt Q9YGP5 1-111) (domain or fragment) | binds | –
5 | Hermes b, two-hybrid clone (residues 7-148) (from UniProt Q9YGP5 7-148) (domain or fragment) | binds | –
6 | VN-POC1B / VC-POC1B (BiFC fusion of Xenopus Poc1B) (protein, UniProt Q4V7Z1 1-468) MASALDDPALQRHFKGHKDAVTCVDFSPDSKQLASSSADACVMIWNFKPQSRAYKYPGHKEAVTCVQFSPSGHLVASSSKDRTVRLWAPNIKGESTVLKAHTAVVRCVNFSSDGQTFITASDDKSIKAWNLHRQRFLFSLTQHTNWVRCARFSPDGRLIASCSDDKTVRIWDLTNRLCINTFVDYKGHSNYVDFNQMGTCVASAGADSTVKVWDIRMNKLLQHYQVHNAGVSSLSFHPSGNYLLTASSDGTLKILDLLEGRLIYTLHGHQGPVLSVTFSKSGDQFASGATDAQVLVWKTNFDKYSVKEIVKLQQKRTCPEAPPHLNDIYPRTPHLHSSSGHSIEINPMCEVADTQTFDPPIINVGANLPYCRRTKAVHTLNKHVRNDNYPTPPVAFSYTEGQKEHPLVEEQGVLPPSLSNTLEQIVDQLNVLTQTVSILEHRLTLTEDKLKECLENQQKTSAHASESD | – | binding [3]: no binding
7 | VN-Rbm24b / VC-Rbm24b (BiFC fusion of Rbm24b) (protein, UniProt Q9I8B3 1-224) MHTTQKDTTYTKIFVGGLPYHTTDSSLRKYFEVFGDIEEAVVITDRQTGKSRGYGFVTMADRAAAERACKDPNPIIDGRKANVNLAYLGAKPRIMQPGFAFGVQQIHPALVQRPYGIPAHYVYPQAYVQQGLVIPHVQQTAAASTSPYIDYTSAAYAQYAAAAAAAYDQYPYAASPATTGYVTAAGYGYAVPQPLTAATPGTAAAAAAAFAQYQPQQLQADRMQ | – | binding [4]: binds

— paper PMC3827131
